# Test results: ChEMBL document CHEMBL4888484, “Replenishing the malaria drug discovery pipeline: Screening and hit evaluation of the MMV Hit Generation Library 1 (HGL1) against asexual blood stage Plasmodium falciparum ,using a nano luciferase reporter read-out” (2022)
# The campaign covered roughly 150,000 compounds. About 540 (0.36%) showed an effect of 50% or more. This is one part of the list.
# System: Plasmodium falciparum
# Experiment: Primary screen in NF54 nanoGlo assay, in single point, at 2uM, 72h; a lower Z score goes with more inhibition
# Assay type: functional, Erythrocyte
# Conditions: timepoint 72 hour
SMILES,% Inhibition [%],Z score
Cc1ccc2c(c1)N(S(C)(=O)=O)CC[C@@H](C(=O)NC1CC1)O2,38,-5.45
CC(C)[C@H](NC(=O)CCOc1ccccc1)c1ncnn1C,-16,1.63
COCCN(C)CC(=O)N1CC[C@]23C(=O)N(Cc4cn(nn4)CCCOc4cccc(c4)[C@H]12)c1ccccc13,-13,2.41
CC1=C(Cc2cn([C@@H](C)c3cnn(C)c3)nn2)C(C)(C)CCC1,2,-0.19
COc1ccc(N2CCN(C(=O)Nc3cc(C)n([C@@H](C)C4CC4)n3)CC2)nc1,-1,0.21
Cc1ccc(NC(=O)Nc2cccc(-c3ccc(N4CCN(C)CC4)nn3)c2)cc1C,30,-1.18
CCCn1c(C)nnc1CN1CCC(O)(Cc2ccccn2)CC1,-4,0.79
Cn1nccc1C(=O)NC1CCC(=O)NC1C1CC1 (centres undefined),-5,0.77
Fc1cc2c(cc1Cl)C(NC[C@H]1CC[C@@H](c3nc(C4CC4)no3)O1)CC2 (some centres undefined),-19,3.58
Cc1cccc(C)c1NC(=O)C1(N(Cc2ccco2)C(=O)c2ccccc2F)CCC(C)CC1 (centres undefined),13,-1.62
Cc1cc(F)ccc1OCC(=O)c1ccc2c(c1)N([C@@H](C)C(=O)NCCN1CCCC1)C(=O)CO2,2,-0.37
Cc1cccc(C(=O)N2CCC3(CC2)c2[nH]c4ccccc4c2CCN3C)c1,-2,0.42
Cc1noc2ncc(CNC(C)(C)c3ccccc3)cc12,6,-1.09
CC1CN(C(=O)C(=O)c2ccc(Br)cc2)CC(C)O1 (centres undefined),-8,1.32
O=C(CCc1cc2n(n1)CCCNC2)N1CCc2[nH]c3ccc(F)cc3c2C1,-4,0.68
CC1CN(Cc2nnc(-c3ccc(F)cc3)o2)CC(C)O1 (centres undefined),2,-0.22
Cc1cnc(CNc2nc(C)cc(C)n2)cn1,-3,0.5
CC(OC(=O)CC1CCCO1)C1CCCCN1C(=O)OC(C)(C)C (centres undefined),5,-0.44
COC(=O)[C@@H](C)CN(CCc1ccc(S(N)(=O)=O)cc1)C(C)=O,-3,0.41
Clc1cncc(CN[C@@H]2CCC[C@@H]2n2ccnc2)c1,-9,1.94
Cc1nc(-c2nnc(NC(=O)CCc3c(C)noc3C)o2)cs1,-4,0.79
O=C(C[C@H](c1cccc(F)c1)c1c[nH]c2ccccc12)NC1CCCCC1,3,-0.45
Nc1nc2ccccc2n1CCN1CCCC1,-9,0.83
Cc1n[nH]c(CN(Cc2ccc(F)cc2)C2CCOCC2)n1,-13,1.47
COc1cccc(CN2C[C@H](NCc3ccccc3C(F)(F)F)C[C@H]2C(=O)NC(C)C)c1OC,0,-0.07
Cc1nccc(O[C@H]2CCN(C(=O)c3cn(C)nn3)C2)n1,2,-0.27

SMILES,% Inhibition [%],Z score
CC(=O)Nc1c(C)nn(-c2ccccc2)c1N1CCC(C(=O)NCCCN2CCC[C@H](C)C2)CC1,-17,3.05
O=C(NCc1cccnc1-c1cccnc1)c1cc(-c2ccc(F)cc2)c[nH]1,4,-0.59
Nc1ccc(CC(=O)N2Cc3ccccc3C2)cc1,-43,5.1
CC(C)n1ncnc1NC(=O)NC[C@H]1CCCO1,5,-0.7
CC(C)(C)n1cc([C@H]2N(C(=O)c3ccc4[nH]cnc4c3)CC23CCOCC3)cn1,1,-0.23
Cc1nccn1CCCCNC(=O)[C@H]1CCc2[nH]nc(C(F)(F)F)c2C1,-3,0.35
Fc1ccc(-c2cnc3n2C[C@H](CNCc2ccc(Cl)cc2)OC3)cc1,-1,0.12
O=C1[C@@H]2CC[C@@H](CN(C3CCCCCC3)C2)N1Cc1cscn1,-11,1.13
Cc1cc(C)n2ncc(CN(C)Cc3n[nH]c4c3CCC4)c2n1,1,-0.15
COCC(=O)Nc1c(O)ccc(Br)c1C,0,0.03
CN1C[C@@H]2C[C@H]1C(=O)NC[C@H]1O[C@H](CCOc3cc(-c4ccccc4)ccc3C(=O)N2)CC[C@@H]1O,-4,0.48
Cc1nc2c([nH]1)CN(Cc1ccc(Cl)o1)CC2,26,-2.54
CCc1nccn1CCC(=O)N1CCC[C@H](C(=O)c2ccc(Cl)cc2)C1,-12,1.75
Cn1nnc2c(=O)n(CC(=O)NCc3ccccc3Cl)cnc21,5,-0.71
CN1CCC(NC(=O)c2cc[nH]n2)C1c1ccc(Cl)cc1 (centres undefined),0,0.02
COc1ccc(-c2nccn3cc(C(=O)N4CCCC4)nc23)cc1,26,-2.95
Cc1oc2ncn(CCN3CCCC3)c(=O)c2c1C(=O)Nc1ccc(C#N)cc1,46,-6.58
Cc1ccnc(NC(=O)c2ccc(CNC(=O)C3CCCC3)cc2)c1,1,-0.11
CC[C@]1(c2ccc(C)cc2)NC(=O)N(CC(=O)c2cc(C)n(Cc3ccc4c(c3)OCO4)c2C)C1=O,-2,0.31
CN(CC(=O)N1CCC[C@H](Cn2ccnc2)C1)Cc1cccnc1,1,-0.18
CNc1nc(C)c(-c2cccc3ccnn23)s1,-3,0.36
CCc1cccc2c(C3CCN(C(=O)[C@H]4CCN(C)C(=O)C4)CC3)c[nH]c12,-13,1.83
Cn1ncc(C2CCC2)c1C(=O)NC[C@@H](C(=O)O)c1ccc(F)cc1,13,-1.61
Cc1noc(C)c1CN(C)C(=O)c1ccc2[nH]c3c(c2c1)CCCC3,-2,0.34
O=C(c1cn2c3c(cc(Br)cc3c1=O)CC2)N1CCCCC1,2,-0.23
CCN(CC)Cc1cnc2c(C(=O)N3CCC[C@H]3c3nonc3C)cnn2c1,-5,0.57
